What is called % Inhibition is the change of the read-out against control, counted positive when it falls.

The results in this text go back to ChEMBL document CHEMBL4888484, “Replenishing the malaria drug discovery pipeline: Screening and hit evaluation of the MMV Hit Generation Library 1 (HGL1) against asexual blood stage Plasmodium falciparum ,using a nano luciferase reporter read-out” (2022).

The structures appear in SMILES notation. Screen size: about 150,000 compounds; about 540 (0.36%) showed an effect of 50% or more. Some of the results follow.

In the test the test system is Plasmodium falciparum. Nature of the test: Primary screen in NF54 nanoGlo assay, in single point, at 2uM, 72h; a lower Z score goes with more inhibition. Conditions: timepoint 72 hour. In kind it is functional, Erythrocyte.
Turning to `N#CCC(=O)c1cccc(Br)c1`, the “% Inhibition” value is on record as -7% and the Z score amounted to 0.75.
As for `O=C(C1CC=CC1)N1CCC[C@H](C(=O)N2CCCC2)C1`, the “% Inhibition” value is reported as -3% and the Z score is reported as 0.63.
The matching figures for `C[C@H]1CCCCN1C(=O)COc1ccccc1-c1nnco1`: -17% and 2.37.
For the compound `CCCO[C@H]1CCCN(CC(=O)NCc2cccnc2)CC1`, the “% Inhibition” value was -2% and the Z score turned out to be 0.4.
`COCCCN(Cc1c(C)nn(-c2ccccc2)c1N1CCN(C)CC1)S(=O)(=O)c1ccc(OC)cc1`: the “% Inhibition” value was 1% and the Z score is -0.2.
Consider `O=S1(=O)NC[C@H](O)CN(CC2CCCCC2)C[C@@]2(COc3cc(-c4cccc(C(F)(F)F)c4)ccc31)C[C@@H](O)[C@@H](O)C2`, for which the “% Inhibition” value is on record as 7% and the Z score is on record as -0.79.
For `CCCC1(C2CCN(C(=O)CCCc3ccccc3)CC2)NC(=O)N(CCC2CCCN2C)C1=O` (stereo not drawn), in that order: 5% and -0.96.
The matching figures for `O=C(Nn1cnc2ccccc2c1=O)c1cnccn1`: 34% and -0.46.
For `Cc1cc(CS(=O)(=O)N2CCN(C)c3cc(Cl)ccc32)no1`, in that order: -2% and 0.31.
For `Cc1ccccc1N1CCN(C(=O)C[C@H]2CCCCN(C)C2=O)CC1`, the “% Inhibition” value is given as -6% and the Z score is listed as 1.06.
For `O=C(CCCn1cccn1)N[C@@H]1[C@@H]2CCO[C@@H]2[C@@H]1C1CCCC1`, in that order: -2% and 0.23.
In the case of `CC[C@](C)(NCC(=O)NCc1ccco1)c1nccs1`, the “% Inhibition” value is recorded as -7% and the Z score came out at 0.89.
For `CN(C)c1ccc(NC(=O)OCC(F)(F)F)cc1`, in that order: -5% and 0.88.
In the case of `N#Cc1ccc(NCCNS(=O)(=O)c2cccs2)cn1`, the “% Inhibition” value is listed as -13% and the Z score amounted to 1.94.
For the compound `CC(C)c1n[nH]c2c1CN(c1ccnc(C(=O)NCc3cccnc3)c1)CC2`, the “% Inhibition” value was 12% and the Z score is -1.66.
Take `CN=C(NCc1ccccc1)NCc1cnc(C)s1`: the “% Inhibition” value was found to be 3% and the Z score is on record as -0.35.
As for `O=C(c1cnoc1-c1ccccc1)N1CCCN(C(=O)[C@@H]2CCCO2)CC1`, the “% Inhibition” value is listed as -7% and the Z score came out at 1.31.
The matching figures for `Cc1ccccc1Nc1nc(N)nc(Cn2nnnc2C(C)(C)C)n1`: 4% and -0.67.
The matching figures for `COc1ccc([C@H](CO)N(C)Cc2ccc(-n3cccn3)cc2)cc1`: -8% and 1.45.
Consider `CC(C)S(=O)(=O)N1CCC[C@H](c2nnc(CN3CCCCC3)n2C)C1`, for which the “% Inhibition” value was -5% and the Z score came to 0.81.
The matching figures for `COC(=O)N1CCn2nc(CN3CCOc4ccc(CO)cc4C3)cc2C1`: 0% and 0.03.
As to `Cn1ccc(C(=O)NC(C2CC2)C2CC2)cc1=O`, the “% Inhibition” value was determined as 0% and the Z score stood at 0.
The matching figures for `COc1ccc(-c2ncc(C#N)c(N)n2)cn1`: 0% and -0.03.
With `CC(C)Oc1cncc(Br)c1`, the “% Inhibition” value was 5% and the Z score was -0.82.
Turning to `CC(C)C[C@H](NC(=O)CCc1ccccc1)C(=O)N(C)C`, the “% Inhibition” value was -10% and the Z score was 1.79.
With `CC1(C)CN(C(=O)Cn2cc(NC(=O)c3cnccn3)cn2)CCO1`, the “% Inhibition” value was -8% and the Z score is listed as 1.24.
The matching figures for `COCCn1cnnc1CCNC(=O)N1CCOc2ccc(CO)cc2C1`: -14% and 2.13.
For `CO[C@H]1C[C@H]2CN(C(=O)NCc3ccco3)[C@@H](Cc3ccccc3)C(=O)N2C1`, in that order: -8% and 1.21.
For the compound `CC(C)CCNC(=O)[C@]1(C)Cn2c(cc3ccccc32)C(=O)N1Cc1ccccc1F`, the “% Inhibition” value is recorded as -6% and the Z score was determined as 0.88.
As to `CCc1cc(N2CCC(N[C@@H](CC)c3ncnn3C)CC2)nc(N(C)C)n1`, the “% Inhibition” value is listed as 5% and the Z score was -0.91.
For `C/C=C/CN1C(=O)N[C@@](Cc2cccc(OC)c2)(C2CCNCC2)C1=O`, in that order: -4% and 0.64.
For `N#CC1=NN(c2ccc(OCc3ccccc3)cc2)[C@H]2CCCCCN2C1=O`, in that order: -31% and 3.58.
For `CCCN(CC(=O)OC)C(=O)CNC(=O)c1ccc(OC(C)C)cc1`, in that order: -13% and 1.65.
With `Cc1ccc(-n2[nH]c(C(=O)NCc3ccc(Cn4ccnc4)cc3)cc2=O)cc1`, the “% Inhibition” value is listed as -12% and the Z score was 1.65.
With `CN(C(=O)C[C@@H]1C=CCC1)C1CCCC1`, the “% Inhibition” value is 0% and the Z score is given as -0.03.
On to `CCc1nc(N(C)C[C@H](O)c2cccnc2)c2ccsc2n1`, for which the “% Inhibition” value was found to be 2% and the Z score was -0.34.
On to `CC(C)(C)OC(=O)CCC(=O)N1CCS(=O)(=O)C2CCCCC21` (stereo not drawn), for which the “% Inhibition” value is reported as 1% and the Z score is given as -0.09.
The matching figures for `COC[C@H]1CCCCN1C(=O)CCc1nnc[nH]1`: -1% and 0.12.
On to `Cc1nc(N(C)Cc2cc(-c3ccccc3)on2)c2cccnc2n1`, for which the “% Inhibition” value is reported as -29% and the Z score turned out to be 3.12.
For `COc1ccc2c(c1)N1CCN(CC(=O)N3CCOCC3)CC1C(C(=O)NCc1cccc(F)c1)C2` (stereo not drawn), in that order: -10% and 0.95.
With `Clc1cccc2ccc(-c3cncnc3)nc12`, the “% Inhibition” value is -18% and the Z score is listed as 3.44.
Turning to `CCCN(CCN(C)C)C(=O)Cn1nc(C)c(Cl)c1C`, the “% Inhibition” value is -3% and the Z score is on record as 0.46.
For `CCn1ccnc1[C@@H](NC(=O)N1CCN(C(=O)c2ccccc2)CC1)C1CCOCC1`, in that order: 0% and 0.05.
For `CCN(CC)S(=O)(=O)c1csc(C(=O)NC(C)(C)CO)c1`, in that order: -18% and 1.64.
For `CCCN1C[C@@H](NC(=O)c2cccc(-c3ccc(O)cn3)c2)CC1=O`, in that order: -4% and 0.89.
Regarding `Cc1cc(=O)c(C(=O)NCc2ccc3[nH]c(C)c(C)c3c2)c(C)[nH]1`, the “% Inhibition” value is 1% and the Z score is listed as -0.09.
Turning to `CC[C@@H](C(=O)Nc1ccc2c(c1)OCCO2)n1nc(C)c2c(C)onc2c1=O`, the “% Inhibition” value is recorded as -5% and the Z score stood at 0.51.
Consider `Cn1ncc2c(N)nc(N3CCn4nc([C@@H](O)CO)cc4C3)nc21`, for which the “% Inhibition” value is -19% and the Z score amounted to 1.88.
For `O=C(c1c(-c2ccc(F)cc2)nc2n1CCS2(=O)=O)N1CCOCC1`, in that order: -6% and 1.
For the compound `CCC(C)NS(=O)(=O)c1cc(NC(=O)CCC2CCCC2)ccc1N1CCCCC1C` (stereo not drawn), the “% Inhibition” value is reported as -1% and the Z score is given as 0.08.
As to `c1cc(-n2ccnn2)c(NCc2cnc(C3CC3)o2)cn1`, the “% Inhibition” value was 17% and the Z score is -2.17.
Consider `O=C(NC1CCCCC1)N1CCc2c(c3ccccc3n2Cc2ccccc2)C1`, for which the “% Inhibition” value was -7% and the Z score is given as 1.16.
For `Cc1c[nH]nc1CNCc1ccc(COC2CCOCC2)cc1`, in that order: 2% and -0.44.
The matching figures for `CN1C[C@@H](O)CNS(=O)(=O)c2ccc(-c3cccnc3)cc2O[C@H]2CN(CCC(C)(C)C)C[C@H]21`: -14% and 2.23.
For `CC(C)(C)C(=O)NCCCNC(=O)c1ccco1`, in that order: -29% and 3.43.
On to `CCOc1cc(CN2CCC(=O)NC[C@@H]2C)ccc1OCCn1ccnc1`, for which the “% Inhibition” value amounted to 5% and the Z score was -0.65.
With `COc1ccc(-c2cc(C(=O)N3CC[C@H](n4ccnc4)C3)n[nH]2)cc1`, the “% Inhibition” value came out at 3% and the Z score was -0.45.
With `O=C(c1csnn1)N1CCc2[nH]nc(-c3ccccc3F)c2C1`, the “% Inhibition” value is reported as -7% and the Z score stood at 1.02.
The matching figures for `CC(CNC(=O)N1CCC(C(=O)O)C1)Oc1ccc(C(C)C)cc1` (stereo not drawn): -8% and 1.06.
The matching figures for `O=C(NCc1ccc(Cl)cc1)c1ccc2c(=O)n3c(nc2c1)CCCC3`: 2% and -0.3.
Take `CCN1CCc2cc(OC)c(OC)cc2C1C(NC(=O)c1ccc(C)cc1)C(C)C` (stereo not drawn): the “% Inhibition” value is on record as -2% and the Z score came to 0.36.
`Cc1nc(CCCNCc2ccccc2)n(-c2ccncc2C)n1`: the “% Inhibition” value was -2% and the Z score is on record as 0.34.
The matching figures for `CC(C)COCCN(C)C[C@@H]1CCCO1`: -7% and 1.11.
For `CS(=O)(=O)N[C@@H]1CC[C@H]2CCOc3ccccc3C(=O)N[C@H]3C[C@@H](C(=O)NC[C@H]1O2)N(Cc1ccc(F)c(F)c1)C3`, in that order: -8% and 1.41.
As for `Nc1nonc1-n1nncc1-c1ccncc1`, the “% Inhibition” value is -6% and the Z score is given as 0.84.
For `Cc1ccsc1-c1cccc(C(=O)N(C)CC2(CO)CCCC2)c1`, in that order: -3% and 0.56.
Turning to `C[C@@]12CN(C(=O)c3ccc4nccn4c3)CC1[C@H]1CC[C@@H]2C1` (stereo partly drawn), the “% Inhibition” value was -9% and the Z score is on record as 1.04.
The matching figures for `Cc1nc(NC(=O)c2cc3n(n2)CCCO3)sc1C`: -9% and 1.61.
For `Cc1ncc(C(=O)N2CCC[C@H](c3nc4c(C)cccc4[nH]3)C2)c(C)n1`, the “% Inhibition” value came out at 2% and the Z score is -0.31.
The matching figures for `CC(=O)C[C@](N)(c1ccc(C)cc1)C(F)(F)F`: -11% and 1.54.
For `CC1(C)CCN(C(=O)NCc2nnc3n2CCOC3)CC(C)(C)C1`, in that order: -3% and 0.54.
On to `Cc1cc(C)cc(CS(=O)(=O)CC(=O)NC(C2CC2)C2CC2)c1`, for which the “% Inhibition” value is reported as -6% and the Z score is recorded as 1.02.
On to `CC(NC(=O)Nc1ccc(N2CCCC2)c(F)c1)C1CCCO1` (stereo not drawn), for which the “% Inhibition” value is reported as -10% and the Z score was found to be 1.35.
With `CC1(C)NC(=O)N(Cc2nc(-c3c[nH]c4ccccc34)n[nH]2)C1=O`, the “% Inhibition” value is given as -29% and the Z score is 2.56.
For `CN(CCCc1cc(-c2ccc(F)cc2)n(C)n1)C(=O)NCc1ccccc1`, in that order: -4% and 0.41.
The matching figures for `COc1ncccc1NC(=O)[C@@H]1CCCO1`: 9% and -1.24.
Take `Cc1nnc(CCNc2ncnc3c2Cc2ccccc2OC3)s1`: the “% Inhibition” value was determined as 0% and the Z score turned out to be 0.06.
Regarding `COC(=O)C1CN(c2nc3ccccc3s2)C[C@@H](C)O1` (stereo partly drawn), the “% Inhibition” value was determined as 4% and the Z score is listed as -0.57.
As for `COc1ccc(CCNC(=O)CC[C@@H]2CN(Cc3ccccc3)CC[C@@H]2N2CCN(C)CC2)cc1OC`, the “% Inhibition” value is reported as -9% and the Z score is on record as 1.11.
`O=C(N[C@H]1CC[C@H](Oc2ccccn2)CC1)c1cc2n(n1)CCCO2`: the “% Inhibition” value was -2% and the Z score was 0.17.
The matching figures for `Cc1ncc(S(=O)(=O)N2CC[C@H](Cc3ccc(F)cc3)C2)cc1C#N`: -7% and 0.74.
In the case of `CC(C)[C@@H]1N(C(=O)c2cncs2)CC12CCCC2`, the “% Inhibition” value is -2% and the Z score stood at 0.37.
For `CN1CCN(C(=O)NCc2cccs2)CC1`, in that order: 9% and -1.2.
For `Cc1cn([C@@H](C)c2ccccc2)nc1NC(=O)CCCc1nc(C2CC2)no1`, in that order: -4% and 0.46.
